Laboratory results taken from the supplement of paper PMC9446081.
The whole screen tested about 39,000 compounds, of which about 220 (0.56%) showed activity. The list shows a part of the results.

Tested on: Escherichia coli K-12 BW25113
Assay: relative growth (OD600 normalised to plate interquartile mean) (fraction); higher = less growth inhibition, active = 0.2 or less
Conditions: 50 µM; LB; incubation time: overnight (16-24 h)
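Further: static incubation at 37 °C against the wild-type strain, values averaged over two biological replicates.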

Row | Structure (SMILES) | relative growth
1 | COc1ccc(NC(=O)Nc2ccc3c(c2)C(=O)N([C@H](C)CO)C[C@@H](C)[C@@H](CN(C)C(=O)Nc2ccc4c(c2)OCO4)OCCCC[C@@H](C)O3)cc1 | inactive: 1.03
2 | CCOC(N)=O | inactive: 1.08
3 | COc1ccc(S(=O)(=O)Nc2ccc3c(c2)C(=O)N([C@@H](C)CO)C[C@H](C)[C@@H](CN(C)Cc2ccc(Oc4ccccc4)cc2)O3)cc1 | inactive: 0.978
4 | COc1ccc(S(=O)(=O)Nc2ccc3c(c2)CC(=O)N([C@H](C)CO)C[C@@H](C)[C@@H](CN(C)C(=O)NC(C)C)O3)cc1 | inactive: 1.03
5 | Cc1cccc(C(=O)N2CCC[C@@H](Cn3cc(C(C)(C)N)nn3)C2)c1C | inactive: 1.01
6 | C[C@@H]1CN([C@@H](C)CO)C(=O)c2cccc(NC(=O)CCCCCC(=O)Nc3ccccc3N)c2O[C@H]1CN(C)CC1CCCCC1 | inactive: 1
7 | CN(C)C(=O)C1CCN(S(C)(=O)=O)CC1 | inactive: 1
8 | CCCCCC=CCCC(=O)NC1C(Oc2c3cc4cc2Oc2ccc(cc2Cl)C(OC2OC(CO)C(O)C(O)C2NC(C)=O)C2NC(=O)C(NC(=O)C4NC(=O)C4NC(=O)C(Cc5ccc(c(Cl)c5)O3)NC(=O)C(N)c3ccc(O)c(c3)Oc3cc(O)cc4c3)c3ccc(O)c(c3)-c3c(OC4OC(CO)C(O)C(O)C4O)cc(O)cc3C(C(=O)O)NC2=O)OC(CO)C(O)C1O (configuration not stated) [TEICOPLANIN [A(2-1) shown]] | inactive: 1.05
9 | COc1ccc(NC(=O)N(C)C[C@@H]2Oc3ccc(NC(=O)CCN4CCOCC4)cc3C(=O)N([C@H](C)CO)C[C@@H]2C)cc1 | inactive: 0.982
10 | N#CCc1ccc(Cl)cc1F | inactive: 0.992
11 | Brc1ccc(-c2ccc(Br)s2)s1 | inactive: 1.04
12 | C[C@@H]1CN([C@H](C)CO)C(=O)c2cc(NS(C)(=O)=O)ccc2O[C@H]1CN(C)C(=O)Nc1ccc(C(F)(F)F)cc1 | inactive: 0.832
13 | CN1CCN(C(=O)C[C@H]2C=C[C@@H](NS(=O)(=O)c3cccc(F)c3)[C@@H](CO)O2)CC1 | inactive: 1.02
14 | COc1ccc(NC(=O)Nc2ccc3c(c2)C(=O)N([C@H](C)CO)C[C@@H](C)[C@H](CN(C)Cc2ccc(Cl)c(Cl)c2)OCCCC[C@@H](C)O3)cc1 | inactive: 1.02
15 | C[C@H](CO)N1C[C@H](C)[C@H](CN(C)C(=O)CCC(F)(F)F)OCCCC[C@H](C)Oc2ccc(NS(=O)(=O)c3cccs3)cc2C1=O | inactive: 1.02
16 | C[C@@H]1CCCCO[C@@H](CN(C)C(=O)CCC(F)(F)F)[C@@H](C)CN([C@@H](C)CO)C(=O)c2cc(NC(=O)NC3CCCCC3)ccc2O1 | inactive: 0.994
17 | C[C@H](CO)N1C[C@H](C)[C@H](CN(C)Cc2ccc(-c3ccccc3)cc2)Oc2ccc(NS(=O)(=O)c3ccc(F)cc3)cc2C1=O | inactive: 0.921
18 | COCC(=O)N(C)C[C@H]1Oc2cc(C#CCC3CCCC3)ccc2S(=O)(=O)N([C@H](C)CO)C[C@@H]1C | inactive: 0.991
19 | C[C@@H]1CCCn2cc(nn2)COCCNC1=O | inactive: 1
20 | C[C@@H]1CN([C@@H](C)CO)C(=O)c2cccc(NC(=O)Nc3ccccc3)c2O[C@@H]1CN(C)C(=O)Nc1cccc2ccccc12 | inactive: 1
21 | COc1cc(Cc2cc3c(c(CCc4ccccc4)n2)[Si](C(C)C)(C(C)C)OC3)cc(OC)c1OC | inactive: 1.03

Row | Structure (SMILES) | relative growth
22 | OCC1(CO)COC(COc2ccccc2)=N1 | inactive: 1.03
23 | CC(C)NC(=O)N(C)C[C@@H]1Oc2ccc(NC(=O)CCCN(C)C)cc2C(=O)N([C@@H](C)CO)C[C@@H]1C | inactive: 0.993
24 | C[C@@H]1CN([C@H](C)CO)C(=O)Cc2cc(NS(=O)(=O)c3cn(C)cn3)ccc2O[C@H]1CN(C)Cc1ccccc1 | inactive: 0.995
25 | O=C(NCO)c1cccnc1 | inactive: 0.97
26 | CC(C)CC#Cc1cnc2c(c1)C(=O)N([C@H](C)CO)C[C@@H](C)[C@H](CN(C)C(=O)CN1CCOCC1)O2 | inactive: 1.02
27 | C[C@@H]1CCCCO[C@@H](CN(C)Cc2ccc3c(c2)OCO3)[C@@H](C)CN([C@@H](C)CO)C(=O)c2cc(NC(=O)Nc3ccc(F)cc3)ccc2O1 | inactive: 0.958
28 | COc1cccc(S(=O)(=O)N(C)C[C@H]2Oc3ncc(C#CCN(C)C)cc3C(=O)N([C@@H](C)CO)C[C@H]2C)c1 | inactive: 1.02
29 | C[C@@H]1CN([C@H](C)CO)C(=O)Cc2cc(NC(=O)Cc3cn(C)c4ccccc34)ccc2O[C@@H]1CN(C)Cc1ccc(Cl)c(Cl)c1 | inactive: 1.03
30 | C[C@H]1CN([C@@H](C)CO)C(=O)Cc2cc(NC(=O)Cn3cnnn3)ccc2O[C@H]1CN(C)C(=O)Nc1cccc2ccccc12 | inactive: 0.994
31 | CS(=O)(=O)c1ccc(S(C)(=O)=O)s1 | inactive: 0.903
32 | COc1ccc(NC(=O)Nc2ccc3c(c2)C(=O)N([C@H](C)CO)C[C@H](C)[C@H](CN(C)S(=O)(=O)c2ccc(Cl)cc2)OCCCC[C@@H](C)O3)cc1 | inactive: 1.01
33 | CC(C)NC(=O)N(C)C[C@H]1Oc2c(NS(=O)(=O)c3cn(C)cn3)cccc2C(=O)N([C@@H](C)CO)C[C@@H]1C | inactive: 0.988
34 | C[C@H]1CN([C@@H](C)CO)C(=O)c2cc(NS(=O)(=O)c3ccccc3)ccc2O[C@H]1CN(C)Cc1ccc(Cl)c(Cl)c1 | inactive: 1
35 | CN1C(=O)c2cc(NC(=O)c3cnccn3)ccc2OC[C@@H]2O[C@@H](CC(=O)N[C@@H]3CCN(Cc4ccccc4)C3)CC[C@H]21 | inactive: 1.02
36 | COc1ccc(NC(=O)N(C)C[C@@H]2OCCCC[C@@H](C)Oc3ccc(NC(=O)Nc4cccc5ccccc45)cc3C(=O)N([C@H](C)CO)C[C@@H]2C)cc1 | inactive: 1.04
37 | O=C(C[C@@H]1CC=CCCC(=O)OC[C@@H](Cc2c[nH]c3ccccc23)NC1=O)N[C@H](CO)Cc1ccccc1 | inactive: 1
38 | CN1CCN(C(=O)C[C@@H]2C=C[C@H](NS(=O)(=O)c3cccc(F)c3)[C@@H](CO)O2)CC1 | inactive: 1
39 | OCC1OC(OC2C(O)C(CO)OC2(CO)OC2OC(CO)C(O)C(O)C2O)C(O)C(O)C1O (configuration not stated) | inactive: 1.08
40 | COc1ccccc1C#Cc1cnc2c(c1)C(=O)N([C@@H](C)CO)C[C@H](C)[C@H](CN(C)S(=O)(=O)c1cn(C)cn1)O2 | inactive: 1.01
41 | C[C@@H]1CCCCO[C@@H](CN(C)C(=O)Cc2ccccc2)[C@H](C)CN([C@H](C)CO)C(=O)c2cc(NC(=O)Nc3ccccc3)ccc2O1 | inactive: 0.986
42 | C[C@H](O)C#Cc1cnc2c(c1)C(=O)N([C@H](C)CO)C[C@H](C)[C@@H](CN(C)Cc1cncnc1)O2 | inactive: 1

Row | Structure (SMILES) | relative growth
43 | CN1C(=O)c2cc(NC(=O)c3ccc(C(F)(F)F)cc3)ccc2OC[C@H]2O[C@H](CC(=O)NC3Cc4ccccc4C3)CC[C@H]21 | inactive: 0.995
44 | C[C@H]1CCCCO[C@@H](CN(C)CC2CC2)[C@@H](C)CN([C@@H](C)CO)C(=O)c2cc(NC(=O)Nc3ccc(F)cc3)ccc2O1 | inactive: 0.952
45 | C[C@@H]1CN([C@H](C)CO)S(=O)(=O)c2ccc(-c3ccncc3)cc2O[C@H]1CN(C)C(=O)c1ccc2c(c1)OCO2 | inactive: 1
46 | CC(=O)N1[C@@H]2c3cccc(=O)n3C[C@H]1[C@H](CO)[C@H]2C(=O)N1CCc2ccccc2C1 | inactive: 1.02
47 | C[C@@H]1CN([C@H](C)CO)C(=O)CCCn2nncc2CO[C@@H]1CN(C)Cc1cccc2c1OCCCO2 | inactive: 1
48 | CC(C)CC#Cc1ccc2c(c1)O[C@H](CN(C)C(=O)NC1CCCC1)[C@H](C)CN([C@@H](C)CO)S2(=O)=O | inactive: 0.997
49 | O=C1c2cccc(O)c2C(=O)c2c(O)cccc21 | inactive: 0.979
50 | C[C@@H]1CN([C@H](C)CO)C(=O)c2cc(NC(=O)CCN3CCOCC3)ccc2O[C@@H]1CN(C)S(C)(=O)=O | inactive: 1.01
51 | CCCNC(=O)N(C)C[C@H]1Oc2ncc(-c3ccc(C(=O)N(C)C)cc3)cc2C(=O)N([C@@H](C)CO)C[C@H]1C | inactive: 1.03
52 | NCc1nccs1 | inactive: 0.957
53 | Nc1ccc(Cl)nn1 | inactive: 0.999
54 | CC[n+]1oc(-c2ccccc2)cc1C | inactive: 1.02
55 | Cc1noc(C)c1S(=O)(=O)Nc1cccc2c1O[C@@H](CN(C)Cc1ccc(-c3ccccc3)cc1)[C@@H](C)CN([C@@H](C)CO)C2=O | inactive: 1.05
56 | Cc1ccc(S(=O)(=O)N(C)C[C@@H]2Oc3ccc(NC(=O)CCN4CCOCC4)cc3CC(=O)N([C@H](C)CO)C[C@H]2C)cc1 | inactive: 0.993
57 | C[C@H]1CN([C@@H](C)CO)S(=O)(=O)c2ccc(C#Cc3ccncc3)cc2O[C@@H]1CN(C)S(=O)(=O)c1ccccc1 | inactive: 1.03
58 | O=C(C[C@@H]1CC[C@H]2[C@@H](COC[C@@H](O)CN2C(=O)Nc2ccc(F)cc2)O1)NCCCN1CCOCC1 | inactive: 0.98
59 | C[C@@H]1CCCCO[C@H](CN(C)S(=O)(=O)c2ccccc2)[C@H](C)CN([C@@H](C)CO)C(=O)c2cc(NS(=O)(=O)c3ccc(Cl)cc3)ccc2O1 | inactive: 1.01
60 | COCC(=O)N(C)C[C@@H]1Oc2cc(C#CCN(C)C)ccc2S(=O)(=O)N([C@@H](C)CO)C[C@@H]1C | inactive: 1.02
61 | Cc1noc(C)c1S(=O)(=O)N(C)C[C@H]1Oc2ccc(NC(=O)CCN3CCOCC3)cc2C(=O)N([C@H](C)CO)C[C@H]1C | inactive: 1.02
62 | C[C@@H]1CN([C@H](C)CO)C(=O)Cc2cc(NC(=O)Cn3cnnn3)ccc2O[C@@H]1CN(C)Cc1ccncc1 | inactive: 1.03
